Consider 97 molecules from PubChem BioAssay AID485344 (National Center for Advancing Translational Sciences (NCATS), 2010).

About 6,900 (2%) of roughly 340,000 compounds were called active. Rule as the data show it: active = inhibition above about 30%; inactive = below that, where a call was filed. The list shows a part of the results, in another mix than the full data. Entries without a call were filed so in the source.

Chain of UniProt P14416 (P14416 whole entry, looked up): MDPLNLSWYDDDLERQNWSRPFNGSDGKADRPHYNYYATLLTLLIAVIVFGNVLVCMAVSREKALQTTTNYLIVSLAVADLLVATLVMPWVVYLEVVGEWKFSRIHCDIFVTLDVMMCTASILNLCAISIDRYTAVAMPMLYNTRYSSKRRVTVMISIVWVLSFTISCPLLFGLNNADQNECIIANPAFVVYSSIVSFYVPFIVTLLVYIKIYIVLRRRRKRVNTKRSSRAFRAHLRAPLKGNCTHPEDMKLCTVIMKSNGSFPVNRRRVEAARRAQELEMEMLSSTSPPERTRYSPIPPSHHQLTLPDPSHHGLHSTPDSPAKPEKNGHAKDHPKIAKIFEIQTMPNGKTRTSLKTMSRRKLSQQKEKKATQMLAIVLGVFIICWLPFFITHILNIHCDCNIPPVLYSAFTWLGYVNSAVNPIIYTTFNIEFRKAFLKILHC

This assay concerns the target D(2) dopamine receptor (Homo sapiens) (UniProt P14416). Description: HTS Assay for Allosteric Antagonists of the Human D2 Dopamine Receptor: Primary Screen for Antagonists. Also: 0% is about no effect. As to conditions: HEK293 TREx D2 cells, calcium flux, dopamine EC80; at 10 µM; stronger effect = higher value. An outline of the steps:
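Inhibition of EC80 dopamine-driven calcium flux, recorded kinetically, defines activity here; cells are a tetracycline-induced HEK293 T-REx line expressing force-coupled D2.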
Usually inhibition stands for the drop in the measured response relative to a control, in per cent. `CCOC(=O)C1(Cc2ccccc2C(F)(F)F)CCN(C2CCSC2)CC1` (configuration not stated): the inhibition is active: 49.9%.
Next, `Cc1cc2nn(-c3ccccc3)nc2cc1NC(=O)Cc1ccc(Cl)cc1`: -1.79%.
With `S=C(NCc1ccc(Cl)cc1)NC1CCN(Cc2ccccc2)CC1`, the inhibition was active: 70.8%.
Next, `CN(C)S(=O)(=O)c1ccc(C(=O)N(Cc2cccnc2)c2nc3c(F)cc(F)cc3s2)cc1`: -7.41%; `CCOc1ccc(CCNC(=O)CSCc2nc(-c3cccc(C)c3)oc2C)cc1OCC`: -3.51%.
`CN(C)S(=O)(=O)N1CCC(N2CCN(Cc3ccc(F)cc3)C(=O)C2=O)CC1`: the inhibition was -4.11%.
Next, `CC1CCN(C(=O)Cn2c(=O)n(-c3ccc(Cl)cc3)c(=O)c3c4c(sc32)CCC4)CC1`: -8.57%; `CCOc1ccc2nc(NC(=O)c3nc(SC(C)C)ncc3Cl)sc2c1`: -8.37%.
Regarding `CCc1cccc2c(-c3ccccc3)nc(SCC(=O)Nc3ccc(OC)cc3)nc12`, the inhibition stood at 22.7%.
Then `O=C(Nc1ccc(F)c(Cl)c1)C1CCCN(S(=O)(=O)c2cccc3nsnc23)C1` (configuration not stated), with -12.9%; and `Nc1nonc1-c1nc2ccccc2n1CC(=O)Nc1ccccc1C(=O)O`, with 5.15%; and `COc1ccc(NC(=S)N(CCCN2CCOCC2)C(C)c2cc3cccc(OC)c3o2)cc1` (configuration not stated), with active: 35.2%.
Next, `CCOc1ccccc1N(CC)C(=O)c1ccc2c(=O)n3c(nc2c1)CCCCC3`: 17.2%; `CC(C)NC(=O)CCSc1nc(-c2ccc3c(c2)OCO3)cc(C(F)(F)F)n1`: 1.58%; `c1ccc(Cc2cc[n+](Cc3ccccn3)cc2)cc1`: active: 42%.
Next, `Cc1cccc(C)c1NC(=O)CSc1nc(-c2cccs2)cc(C(F)(F)F)n1`: -5.79%.
In the case of `Cc1cn2c(=O)cc(COc3ccc(C(C)(C)C)cc3)nc2s1`, the inhibition is 1.13%.
Next, `CCOc1ccccc1NC(=O)NCc1ccccc1`: active: 42.2%; `CCOC(=O)c1c(C)[nH]c(N=Nc2cccc(C)c2)c1C`: active: 32.7%; `CN(Cc1ccccc1)C(=O)CSc1c2c(nc3ccc(Cl)cc13)CCCC2`: -1.19%.
Then `Cc1ccc(-c2c(CN3CCN(c4cccc(C)c4C)CC3)csc2C)cc1`, with -28.2%.
Then `COc1ccc(NC(=O)NCCCN2CCN(c3ccccc3F)CC2)cc1`, with active: 91.5%; and `COc1ccc(-n2nc(C(=O)NCCc3ccc(Cl)cc3)c3c4ccccc4n(C)c3c2=O)cc1`, with 8.33%.
Turning to `COc1ccc(C2c3c(-c4ccccc4)n[nH]c3C(=O)N2c2ccc(C(=O)O)cc2)c(OC)c1` (configuration not stated), the inhibition turned out to be 10.7%.
Then `CC(Sc1nccn1C)C(=O)Nc1ccc(Cl)cn1` (configuration not stated), with active: 48.9%.
Next, `COc1cc(NC(=O)Cn2c(-c3ccccc3)cc(C(C)=O)c2C)cc(OC)c1`: 13.4%.
Next, `Cc1ccc(-c2cnc(C3CC3)o2)cc1S(=O)(=O)Nc1cccc(C#N)c1`: 13.4%.
As for `COC(=O)c1ccc2c(c1)sc(=NC(=O)c1ccc(S(=O)(=O)N3CCCCC3)cc1)n2C`, the inhibition is -7.33%.
Then `COc1ccc(NC(=O)CCS(=O)(=O)c2cc3c(cc2C)NC(=O)CO3)cc1Cl`, with 11.1%; and `CCCc1cnc2c(c1SCC(=O)Nc1ccc([N+](=O)[O-])cc1)c(=O)n(C)c(=O)n2C`, with -6.94%.
Next, `Cc1ccc(Cl)cc1NC(=O)c1sc2nc(C)c(C)c(C)c2c1N`: 21.7%.
Consider `CCOC(=O)c1ccccc1NC(=O)N(Cc1ccc(CC)cc1)Cc1cn[nH]c1-c1ccc(OC)cc1`, for which the inhibition was -0.249%.
Then `Cc1cccc(NC(=O)c2cccc(N3CCCS3(=O)=O)c2)c1`, with 4.01%; and `O=C(COc1ccc(F)cc1)Nc1ccc(OCc2cc(=O)n3ccsc3n2)cc1`, with -21.1%; and `Cc1ccc(CNC(=O)CN2Cc3ccccc3C2=O)cc1`, with -5.27%.
Next, `Cc1ccccc1NC(=O)Cn1c(=O)n(CCC(=O)N2CCc3ccccc3C2)c(=O)c2ccccc21`: -13.4%.
Then `CCC1CN(C(=O)N2CCC(C(=O)NCCCc3ccccc3)CC2)c2cc(C)ccc2O1` (configuration not stated), with -2.81%; and `COc1ccc(OCC(=O)N/N=C(/C)Cc2ccccc2)cc1`, with active: 31.6%.
As to `COc1ccc(NS(=O)(=O)c2cc(-c3onc(C)c3C)ccc2C)c(OC)c1`, the inhibition amounted to 0.895%.
For `Cc1cccc(C)c1NC(=O)CCSc1nc(-c2ccc3c(c2)OCO3)cc(C(F)(F)F)n1`, the inhibition was -0.419%.
Next, `CCCC12CN3CC(CCC)(CN(C1)C3c1ccc(OCc3ccccc3)cc1)C2=O` (configuration not stated): -4.4%; `CCOC(=O)c1[nH]c2c(c1-c1ccccc1)C(=O)CC(c1ccccc1)C2` (configuration not stated): active: 30.8%.
Regarding `Cc1ccc(Nc2ccc(N3CCN(C(=O)c4cccc([N+](=O)[O-])c4)CC3)nn2)cc1`, the inhibition was -4.15%.
Next, `COc1ccccc1NC(=O)CN(C)S(=O)(=O)c1cccc2cccnc12`: -6.02%; `O=C(CSc1ncc2c(n1)-c1ccccc1N(Cc1ccc(Cl)cc1)S2(=O)=O)c1ccc(Cl)cc1`: 0.615%.
Next, `CC(C)(C)NC(=O)C1c2ccccc2Oc2ccccc21`: active: 46.7%.
In the case of `COc1ccc(CNC(=O)CN(C(=O)c2snc(C(N)=O)c2N)c2ccc(OC)c(OC)c2)cc1`, the inhibition was active: 31.5%.
Next, `CCOC(=O)c1ccc(NC(=O)CN2C(=O)C(C)(C)c3ccccc32)cc1`: 3.35%; `Cc1ccc(C)c(NC(=O)c2cnn(-c3ccc(F)cc3F)c2C2CCNCC2)c1`: -18.3%; `CCN(C(=O)c1sc2nc3n(c(=O)c2c1C)CCCC3)c1ccccc1F`: 16.9%.
Next, `CC(=O)c1ccc(NC(=O)CSc2nnc3ccc(-c4ccc(F)cc4)nn23)cc1`: -21%.
With `COc1cc(C2C(C#N)=C(N)Oc3n[nH]c(-c4cccnc4)c32)ccc1OCC(N)=O` (configuration not stated), the inhibition is active: 30.2%.
As to `Cc1ccc(CCNC(=O)c2cc(-c3ccccc3)n[nH]2)cc1`, the inhibition was determined as 17.2%.
Next, `COc1ccc(/C=C/C(=O)O)cc1COc1cccc(C)c1`: active: 40.3%; `CCC1=C(c2ccc(C)cc2)S(=O)(=O)N=C1N1CCC(C(=O)Nc2ccccc2C(=O)OC)CC1`: -0.982%.
Next, `Cc1cn2c(=O)cc(COc3ccc(NC(=O)c4ccc(C(C)(C)C)cc4)cc3)nc2s1`: 15.3%; `COc1ccc(CNC(=O)CCc2c(C)nn(-c3ccc(N4CCOCC4)nn3)c2C)c(OC)c1`: -5.41%; `CN(C)c1ccc(C(CNC(=O)c2ccc(C(C)(C)C)cc2)N2CCCC2)cc1` (configuration not stated): 14.4%.
Then `Cc1cccc(C(=O)Nc2ccc(O)c3c(=O)cc(-c4ccccc4Cl)oc23)c1`, with active: 30.9%; and `Cc1cccc(NC(=O)C2CCCN2S(=O)(=O)c2cccc3nsnc23)c1C` (configuration not stated), with 3.22%; and `Cc1cc(O)c(C(c2ccccc2)N2CCC(C)CC2)c(=O)n1Cc1ccco1` (configuration not stated), with 0.61%.
Take `Cc1nn(-c2ccc(N3CCCC3)nn2)c(C)c1CCC(=O)N1CCN(c2ccccc2F)CC1`: the inhibition was found to be 14.5%.
Then `O=C(C1CCC1)N1CCc2cc(S(=O)(=O)NCCc3ccccc3)ccc21`, with -8.78%; and `CCOC(=O)CCc1c(C)nc2c(c(C)nn2-c2ccc(C)cc2)c1C`, with 1.31%; and `COc1ccccc1NC(=O)c1ccc2c(c1)nnn2C`, with active: 71%.
Then `NC(=O)C1CCCNC1` (configuration not stated), with active: 46.6%; and `COc1ccc(-c2nc(SCC(=O)NCc3ccccc3Cl)n[nH]2)cc1`, with -9.38%; and `Cc1ccc(Cn2c(CCNC(=O)C(C)C)nc3ccccc32)cc1`, with 17.7%.
Then `COc1ccc(CNC(=O)CCNS(=O)(=O)c2ccc3c(c2)CCCC(=O)N3)cc1`, with -2.64%.
For the molecule `Cc1ccc(Cl)cc1N(C)C(=O)C1CCCN(c2ncnc3onc(-c4ccc(F)cc4)c23)C1` (configuration not stated), the inhibition was 7.95%.
Next, `Clc1cccc(-n2cc(-c3ccccc3)c3c(NC4CCCC4)ncnc32)c1`: 7.01%; `COc1ccccc1NC(=O)CSc1nc2c(oc3ccccc32)c(=O)n1Cc1ccco1`: 15.3%.
Then `COc1ccc(NC(=O)C2CCCN(S(=O)(=O)c3cccc4nonc34)C2)cc1Cl` (configuration not stated), with 4.52%.
Take `Cc1ccc(-c2nnc3c4ccccc4c(C)nn23)cc1NC(=O)c1cccc(Br)c1`: the inhibition came out at 3.38%.
`O=C(NCC(c1ccco1)N1CCCC1)c1cc2ccccc2s1` (configuration not stated): the inhibition was active: 35.3%.
Then `O=C(NCc1cccc(Cl)c1)NCc1noc2ccccc12`, with 11.1%; and `CCCCN(CC)C(=O)CCCn1c(=O)c2cccn2c2ccccc21`, with 8.66%; and `Cc1nn(-c2ccccc2)c(Cl)c1C(=O)NCc1cccs1`, with active: 44.5%.
Next, `Cc1ccc(CNC(=O)CN2C(=O)CC(c3ccc(C)c(C)c3)=Nc3ccccc32)cc1`: -10.9%; `Clc1cccc2c1CCN(Cc1nc(-c3cnccn3)no1)C2`: active: 40%.
Take `Cc1cccc(CN2CCC(CNc3ncnc4onc(-c5ccc(Cl)cc5)c34)CC2)c1`: the inhibition came to 1.56%.
For the molecule `CCCOc1ccc(C2c3c(oc4ccc(F)cc4c3=O)C(=O)N2CCc2ccc(OC)cc2)cc1` (configuration not stated), the inhibition amounted to 15.3%.
On to `Cc1ccc(CSc2nc3cccnc3n2Cc2ccc(C(=O)NC3CCCCC3)cc2)cc1`, for which the inhibition is 21%.
Next, `CC(=O)Nc1nonc1-c1nnc(SCC(=O)Nc2ccc(C)c(Cl)c2)n1C`: 3.15%.
Then `CC(C)(C)C1CCC(OCC(O)CN2CCN(c3ccccc3)CC2)CC1` (configuration not stated), with active: 73.6%; and `CCOc1ccc2c(c1)c(=O)c(S(=O)(=O)c1ccc(C)cc1)cn2Cc1ccccc1Cl`, with -3.46%; and `CCOC(=O)c1cnc(N2CCN(c3ccc(OC)cc3)CC2)c2ccccc12`, with -19.3%.
Then `CCN1CCN(c2ncnc3c2cnn3-c2cc(Cl)ccc2C)CC1`, with -19.5%.
Turning to `CCOC(=O)c1c(S(=O)(=O)NCC(=O)N(C)Cc2ccccc2)c(C)n(C)c1C`, the inhibition was -7.27%.
Next, `COc1ccccc1N1CCN(c2ncnc3c2c(-c2ccccc2)cn3-c2cccc(C)c2)CC1`: 6.88%; `CC1CCN(S(=O)(=O)c2csc(C(N)=O)c2)CC1`: 1.22%; `CC(O)(CS(=O)(=O)c1ccc(Br)cc1)c1ccccc1` (configuration not stated): active: 31.2%.
As to `O=C(Cc1csc(Nc2nc(=S)[nH]c3ccccc23)n1)NCCCN1CCN(c2ccccc2F)CC1`, the inhibition is active: 67.4%.
Then `O=C(Nc1ccccc1)c1ccc(CN2CCc3ccccc3C2)cc1`, with active: 54.2%.
Next, `CSc1ccc(CCNC(=O)c2c(C)oc3ncn(C)c(=O)c23)cc1`: -9.01%; `COc1ccc(Br)cc1CN1CCN(Cc2c[nH]c3ccccc23)CC1`: active: 86.8%; `Cc1cccc(Cn2c(Cc3ccccc3)nc3ccccc32)c1`: -2.24%.
